Source: PubChem BioAssay AID1477 (National Center for Advancing Translational Sciences (NCATS), 2009)
Screen size: about 230,000 compounds; fewer than 10 were called active. Inconclusive means that the source gave no clear call. Such entries were picked first, then a sample of the others. The call rests on the fitted dose curve; in most records, active means well fitted curve in the direction sought with a large enough effect; inconclusive means small, poorly fitted or top-dose-only effect, or effect the other way, or another doubt; inactive means no such curve, though single readings can be large or run the other way. No potency is given beside an inconclusive call; the fits are too rough.

molecular target: Runt-related transcription factor 1 (Homo sapiens) + Core-binding factor subunit beta (Homo sapiens) (UniProt Q01196+Q13951); assay: qHTS Assay for Compounds Blocking the Interaction Between CBF-beta and RUNX1 for the Treatment of Acute Myeloid Leukemia; conditions: AlphaScreen CBFb-His/RUNX1-biotin binding, biochemical; series mostly up to 59.8 µM
How it was run: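 CBFb-His/RUNX1-biotin, 30 nM each, preincubated 20 min RT; compound 15 min RT; Ni + streptavidin beads 50 ng each, 90 min RT; AlphaScreen read.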

Chain of UniProt Q01196 (Q01196 whole entry, looked up): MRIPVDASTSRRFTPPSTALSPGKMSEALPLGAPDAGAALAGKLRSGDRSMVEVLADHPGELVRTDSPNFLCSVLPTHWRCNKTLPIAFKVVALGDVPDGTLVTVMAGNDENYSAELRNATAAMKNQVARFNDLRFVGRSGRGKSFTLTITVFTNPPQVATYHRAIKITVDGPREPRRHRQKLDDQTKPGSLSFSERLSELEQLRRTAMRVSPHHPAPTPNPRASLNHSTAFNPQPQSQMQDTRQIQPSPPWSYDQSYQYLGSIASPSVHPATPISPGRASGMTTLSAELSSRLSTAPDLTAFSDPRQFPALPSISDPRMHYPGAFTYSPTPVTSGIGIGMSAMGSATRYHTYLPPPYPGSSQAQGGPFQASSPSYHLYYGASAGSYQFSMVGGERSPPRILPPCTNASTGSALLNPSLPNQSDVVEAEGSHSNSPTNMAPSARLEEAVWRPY
Chain of UniProt Q01196 (Q13951 whole entry, looked up): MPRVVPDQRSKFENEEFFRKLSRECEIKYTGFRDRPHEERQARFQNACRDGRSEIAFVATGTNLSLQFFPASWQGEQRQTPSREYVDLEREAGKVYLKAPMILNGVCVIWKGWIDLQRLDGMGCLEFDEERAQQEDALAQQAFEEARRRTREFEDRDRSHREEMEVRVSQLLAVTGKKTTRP

SMILES	Potency
Cc1ccccc1-n1cnnc1SCC(=O)Nc1cccnc1Cl	inconclusive [activator, single point]
CC(C)c1ccccc1NC(=O)c1ccco1	inactive
CC(C)c1ccc(CN2CC(C(=O)Nc3ccccc3)CC2=O)cc1 (centres undefined)	inconclusive [inhibitor, single point]
O=C(Cn1c(-c2ccccc2)noc1=O)Nc1ccc(N2CCCCCC2)cc1	inconclusive [inhibitor, partial curve]
CC1(C)C(=O)OC(c2c3ccccc3cc3ccccc23)C(C)(C)C1=O (centres undefined)	inconclusive [activator, partial curve]
COC(=O)[C@@]1(Cc2ccc(OC)cc2)[C@H]2c3cc(C(=O)N4CCCC4)n(CCc4c[nH]c5ccc(O)cc45)c3C[C@H]2CN1C(=O)c1ccccc1	inconclusive [inhibitor, single point]
C=CCNC(=O)COC(=O)COc1ccc(Cl)cc1	inconclusive [activator, full curve, poor fit]
COc1ccc(C(=O)c2sc3nc(-c4ccccc4)ccc3c2N)cc1	inconclusive [activator, partial curve]
CN(C)c1ccc(-c2nc3cnccn3c2Nc2ccc3c(c2)OCCO3)cc1	inconclusive [inhibitor, single point]
O=C(Nc1ccc(N2CCOCC2)cc1)c1cccc(S(=O)(=O)N2CCCCCC2)c1	inconclusive [inhibitor, single point]
N/C(=N\OC(=O)CCCOc1ccccc1)c1cccc(Br)c1	inconclusive [activator, single point]
CCn1cnc2scc(-c3ccccc3)c2c1=O	inactive
Cc1ccc(/C=C2\C(=O)NC(=S)N(c3ccccc3F)C2=O)s1	inactive
Cc1ccc(S(=O)(=O)N2CCN(c3nc(C)nc4sc5c(c34)CCC(C)C5)CC2)cc1 (centres undefined)	inactive
Cc1cccc2cc(C(c3nnnn3C(C)(C)C)N(Cc3ccco3)CC3CCCO3)c(=O)[nH]c12 (centres undefined)	inconclusive [inhibitor, single point]
Nc1ncc(N=Nc2cc(C(=O)O)ccc2Cl)s1	inconclusive [inhibitor, single point]
NNc1ccc(Cc2ccc(Cl)cc2Cl)nn1	inconclusive [inhibitor, full curve, poor fit]
CC1Cc2ccccc2N1C(=O)CSc1nnc(CNc2ccccc2)o1 (centres undefined)	inactive
CCOc1ccccc1-c1nc2c([nH]1)c(=O)n(C)c(=O)n2C	inactive
CCOc1ccc2nc(SCC(=O)c3cccs3)sc2c1	inactive
O=C(c1ccco1)N1N=C(c2ccc(Cl)cc2)CC1(O)C(F)(F)F (centres undefined)	inconclusive [activator, single point]
COC(=O)c1cn(C(=O)c2cccc3ccccc23)c2ccccc12	inconclusive [activator, partial curve]

SMILES	Potency
COc1ccc(CN2C=C3C(=O)C(C)(OC(=O)CCc4ccccc4)C(=O)C=C3C=C2c2ccc(C#N)cc2)cc1 (centres undefined)	inconclusive [inhibitor, single point]
Fc1ccccc1C1CC(c2ccco2)=Nc2ccccc2S1 (centres undefined)	inconclusive [inhibitor, partial curve, poor fit]
CSc1ccccc1C(=O)C1CCCN(C(=O)CCN2CCCO2)C1 (centres undefined)	inactive
Cn1c(C(=O)OC(C(=O)NC2CCCCC2)c2cccnc2)cc2sccc21 (centres undefined)	inactive
Cc1ccsc1C1NC(=O)c2c(sc3c2CCN(C)C3)N1 (centres undefined)	inactive
C#CCOCCOCCOCCNc1nc(N2CCN(C(=O)[C@H]([C@@H](C)CC)n3cc([C@@H](N)CC(C)C)nn3)CC2)nc(N2CCN(C(=O)[C@H]([C@@H](C)CC)n3cc([C@@H](N)CC(C)C)nn3)CC2)n1	inactive
COc1ccc(Nc2nc(NN)nc(C)c2[N+](=O)[O-])cc1	inconclusive [inhibitor, single point]
CCOC(=O)CSc1nc2ccccc2n1CC(=O)N1CCN(c2ccccc2)CC1	inconclusive [inhibitor, single point]
O=C(CSc1nc2ccccc2c(=O)[nH]1)Nc1ccc(C(=O)O)cc1	inconclusive [activator, single point]
COc1ccc(N2CCN(C(=O)Nc3ccccc3Cl)CC2)cc1	inconclusive [activator, full curve, poor fit]
CCOC(=O)C(=O)Nc1nnc(SCc2ccc(F)cc2)s1	inconclusive [activator, single point]
COc1ccc(OCCC(=O)OCC(=O)NCc2ccco2)cc1	inconclusive [inhibitor, single point]
O=[N+]([O-])c1ccc(N/N=C/c2sc(N3CCOCC3)nc2-c2ccccc2)c(S(=O)(=O)Nc2ccc(Cl)cc2)c1	inactive
COc1ccc(/C(O)=C/c2nc3ccccc3n(-c3ccccc3)c2=O)cc1	inactive
CC(Oc1ccccc1)C(=O)Nc1cccc([N+](=O)[O-])c1 (centres undefined)	inactive
CC1C/C(=N/Nc2nc3ccccc3[nH]2)CC(C)(C)C1 (centres undefined)	inconclusive [inhibitor, single point]
Oc1c(C(c2ccc(Cl)cc2)N2CCCC2)cc(Cl)c2cccnc12 (centres undefined)	inconclusive [inhibitor, single point]
ClCc1csc(-c2ccc(Cl)cc2)n1	inactive
Cc1cccc(C)c1OC[C@H](C)N	inactive
CC1CCCCN1S(=O)(=O)c1ccc(C(=O)Nc2nnc(-c3ccccn3)o2)cc1 (centres undefined)	inconclusive [inhibitor, single point]
CN(Cc1cccc(Cl)c1Cl)c1ccc(S(=O)(=O)N2CCCCC2)cc1[N+](=O)[O-]	inconclusive [inhibitor, partial curve]
O=C(NNc1nc(-c2ccccc2)c2cc(Br)ccc2n1)c1ccc(S(=O)(=O)N2CCOCC2)cc1	inconclusive [inhibitor, partial curve]
